Among all 360,000 compounds or so, about 17,000 (4.7%) were called active. Inconclusive means that the source gave no clear call. Such entries were picked first, then a sample of the others. Rule as the data show it: active = activity change below about -50%; inconclusive = mostly about -30% to -49%; inactive = weaker than that.
assay: qHTS for Inhibitors of Inflammasome Signaling: IL-1-beta AlphaLISA Primary Screen; settings: THP-1 LPS/ATP IL-1B secretion, 16 h; at 57.5 µM, active compounds read low
Summary of the method: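 THP-1 cells pretreated 1 hr with compounds (up to 57.5 uM final), then stimulated with LPS (250 ng/mL final) plus ATP (1.25 mM final); secreted IL-1B measured by AlphaLISA after 16 hr, decreased signal indicating inhibition.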
% is scaled to controls: 0 for no effect and ±100 for the full control effect.

Activity change, active:
O=C(NNC(=S)Nc1cccc(C(F)(F)F)c1)c1ccc(Cl)cc1Cl -52.2%
O=C1C=C(c2ccccc2Oc2ccccc2)C[C@@H](c2ccc3c(c2)OCO3)C1 -58%
O=C(CCNc1ccc(F)c(Cl)c1)c1ccco1 -101%
NS(=O)(=O)c1ccc(NCc2cc(Cl)ccc2OCc2ccc(F)cc2)cc1 -56.7%
O=C(CNC(=S)N(Cc1ccccc1F)C1CCCCC1)NCC1CCCO1 (stereo not drawn) -68.2%
Cc1cccc(C)c1-c1ccc(CN2C(CC(C)C)C(=O)N(Cc3cn(CCO)nn3)CCS2(=O)=O)cc1 (stereo not drawn) -56.7%
COc1cccc(CN(C)CC(O)COC(c2ccccc2)c2ccccc2C)c1 (stereo not drawn) -77%
O=C(CN1C(=O)C(=O)N(CCC2=CCCCC2)C1=O)c1c[nH]c2ccccc12 -58.8%
Cc1ccccc1NC(=O)N1CCCC(c2nc(-c3ccc(C(C)C)cc3)no2)C1 (stereo not drawn) -76.5%
CC(C)CCNC(=O)C1CCCN(S(=O)(=O)c2ccc3c(c2)CC(C)N3C(=O)C2CC2)C1 (stereo not drawn) -55.2%
CCC[C@@H](CN1CCC[C@H]1CN1C(N)=NC[C@H]1CC(C)C)N1C[C@@H](Cc2ccccc2)N(CCc2ccc(Cl)c(Cl)c2)C1=N -68.5%
O=S1(=O)Nc2c(ccc3cccnc23)-c2ccccc21 -99.8%
COc1ccc(C(=O)/C=C/c2ccc(OC)c(CN3CCOCC3)c2)cc1 -100%
O=C(NNc1ccc([N+](=O)[O-])cc1[N+](=O)[O-])c1ccco1 -61.9%
COc1ccc(C(=O)Cn2c(=N)n(C)c3ccccc32)cc1 -56.2%
Cc1noc(C)c1/C=N/Nc1ccc2ccccc2n1 -70.6%
CC(=O)c1c(N2CCN(c3ccccc3)CC2)nc(=S)n(-c2ccccc2)c1C -65.2%
COc1cccc(NC(=O)CN(C2=NC3CS(=O)(=O)CC3S2)c2cccc(C)c2)c1 (stereo not drawn) -65.4%

Activity change, inactive:
CC(C)CN1CCC1(C)C(=O)Nc1ccc(OC(F)F)cc1 (stereo not drawn) 14.2%
COC(=O)C1C/C(=N\NS(=O)(=O)c2ccc(C)cc2)c2ccsc2C1 (stereo not drawn) 25%
C=CCn1c(CSc2nnc(-c3ccccc3)n2C)n[nH]c1=S 5.43%
COc1cccc(C2=Cc3ccc(F)cc3C(CC(C)=O)N2c2ccc(-c3cc(OC)c(OC)c(OC)c3)cc2)c1 (stereo not drawn) -3.18%
CN(C)CCN1CCN(C(c2ccnc3ccccc23)c2nnnn2-c2ccc3c(c2)OCCO3)CC1 (stereo not drawn) -10.4%
COCCCn1cnc2c(c1=O)c1nc3ccccc3nc1n2-c1ccc(C)cc1 -17.2%
CN(Cc1ccccc1)S(=O)(=O)c1ccc(Cl)c(C(=O)NCCCN2CCOCC2)c1 21.7%
O=C1CCCCCCC(=O)[C@H](O)C[C@H](c2ccccc2)O1 0%
COc1cc2[nH]c(=S)n(Cc3ccc(C)cc3)c(=O)c2cc1OC 10.8%
O=C(NCCN1CCCCCC1)c1ccc(CS(=O)(=O)c2ccc(Br)cc2)o1 -8.4%
CC(Cc1nnc(N)s1)c1ccccc1 (stereo not drawn) 13.6%
CN1CCN(C(=O)c2cc3c(c(-c4cccc(Br)c4)n2)[C@H](CCO)N(S(=O)C(C)(C)C)C3)CC1 (stereo partly drawn) 21.7%
CC1(C)Oc2ccc3ccc(=O)oc3c2/C(=C/NNC(N)=O)C1=O -2.13%
O=C(Cc1cc(=O)[nH]c(=O)[nH]1)NCc1ccccc1 13.7%
CN(C)C(=O)CSc1nc(-c2ccccc2)c(-c2ccccc2)o1 3.5%
O=C(CSc1n[nH]c(=O)n1Cc1ccccc1)Nc1ccc(F)c(F)c1F 16.6%
CCN(C[C@H]1N[C@@](CC)(C(=O)OC)[C@H]2C(=O)N(C)C(=O)[C@@H]12)C(=O)C1CCCCC1 0.384%
CN(C)S(=O)(=O)c1ccc(NC(=O)CNc2cc(S(=O)(=O)N3CCCC3)ccc2OCC(F)(F)F)cc1 10.7%
CCN(CC)CCCNC(=O)C1CCC(CNS(=O)(=O)c2c(C)cc(C)cc2C)CC1 (stereo not drawn) -1.27%
COc1cc2c(cc1OC)C(c1cc(C)ccc1C)CC(=O)N2 (stereo not drawn) 59.7%
CCC(C)NC(=O)c1ccc2c(c1)S(=O)(=O)c1ccccc1C2=O (stereo not drawn) -1.6%
O=C(Cn1ccc(C(F)(F)F)n1)N=Nc1c(O)[nH]c2ccccc12 -3.23%

Activity change, inconclusive:
CCN1C(=NCC(C)C)N[C@@H](c2cccc(C(F)(F)F)c2)C(C(=O)OC)=C1C -38.6%
CCN1CCN(Cc2ccc(NC(=O)c3cc(NC(=O)c4ccno4)cc(OC)c3)cc2C(F)(F)F)CC1 -34.4%
O=C(O)C1C2C=CC(C2)C1C(=O)NCc1cccnc1 (stereo not drawn) -35.2%
Cn1c(C(=O)OCC(=O)NCCc2ccccc2)cc2sccc21 -36.8%
Cc1cc(C)c(C(=O)COC(=O)Cn2c(C)csc2=O)cc1C -34.3%
Cc1ccc(N(CC(=O)NC(C)C)C(=O)CCC(=O)Nc2ccccn2)c(C)c1 -40%
C=CC[C@@H](CC(=O)N(CCO)Cc1ccccc1)C(=O)NC[C@H](OC(=O)[C@@H](CC=C)CC(=O)OC(C)(C)C)c1ccccc1 -38.5%
O=[N+]([O-])c1ccc(N2CCC(=NOCc3ccc(Cl)cc3)CC2)cc1 -48.8%
CCN(CC)CCCC(C)Nc1nccc2c(Cl)cccc12 (stereo not drawn) -32.1%
O=C(Cn1cnc2c(nnn2-c2ccc(F)cc2)c1=O)N1CCCc2ccccc21 -46.5%
O=C(c1ccc(S(=O)(=O)N2CCCCC2)cc1)N1CCN(Cc2ccc3c(c2)OCO3)CC1 -36.1%
O=[N+]([O-])c1ccc(OCCCCN2CCc3ccccc3C2)cc1 -42.4%
CCOc1ccc2nc(NC(=O)C3CCCO3)sc2c1 (stereo not drawn) -44.5%
CCOC(=O)C1=C(C)NC(SC)=C(C#N)C1CC(C)C (stereo not drawn) -40.2%
COc1ccc(CCNCC(=O)Nc2ccc(OC(F)F)cc2)cc1 -32.5%
COc1ccc(NC(=O)c2ccc(OC(F)F)cc2)cc1Cl -42.9%
Cc1ccc(C(=O)CSc2nnc(COc3cc(C)cc(C)c3)o2)cc1 -44.1%
COc1cc(Cl)ccc1OC1(C)CCN(Cc2ccc(SC)cc2)C1 (stereo not drawn) -43.3%
COc1ccc(CC(=O)Nc2ccc(C)c(S(=O)(=O)N3CCCCCC3)c2)cc1 -37.5%
NC(=O)CC(NC(=O)c1ccc(Br)cc1)c1ccc(NC2CCCCCCC2)c([N+](=O)[O-])c1 (stereo not drawn) -32.2%
Cc1c(C(=O)NCCN2CCCC(O)C2)oc2c(F)cccc12 (stereo not drawn) -37.3%
CC(C)NC(=O)Nc1ccc2c(c1)C(=O)N([C@H](C)CO)C[C@H](C)[C@@H](CN(C)Cc1ccc(C(F)(F)F)cc1)OCCCC[C@@H](C)O2 -33.1%
Oc1[nH]c2ccccc2c1N=NC(=S)NCC1CCCO1 (stereo not drawn) -37.3%
COc1ccc(CNC[C@@H](CCCCN(C)Cc2ccc(OC)cc2)N2C[C@H](c3ccccc3)N(CCc3ccc(Cl)c(Cl)c3)C(=O)C2=O)cc1 -37.5%
Cc1cccc(-n2cnc(C(=O)NC3CCCCCC3)c2)n1 -40.5%
CN1CCN(S(=O)(=O)c2ccc(N(C)Cc3ccc(OC(F)F)cc3)c([N+](=O)[O-])c2)CC1 -34.8%
CC(=O)Nc1ccc(NS(=O)(=O)c2ccc3ccccc3c2)cc1 -34%
Cc1ccc(C)c(-c2cc(C(=O)Nc3sc(C)c(C)c3C(N)=O)c3ccccc3n2)c1 -37.5%
CCCCCN(C(=O)CCC(=O)OCCOc1ccc(OCC)cc1)c1c(N)n(CCCC)c(=O)[nH]c1=O -43.6%
CCc1ccc(/C=C/C(=O)c2ccc(S(=O)(=O)N(C)C)cc2)cc1 -43.8%
COC(=O)C1=C(N)Oc2c(oc(CO)cc2=O)C1c1c(F)cccc1Cl (stereo not drawn) -33.4%
Cc1ccc(NC(=O)Cn2c(=O)c3cccn3c3ccccc32)c(C)c1 -36.2%
COc1cc(CNc2ccc3[nH]c(=O)[nH]c3c2)ccc1OCc1ccccc1F -45.2%
CC(C)N(Cc1ccccc1)C(=O)CN1C(=O)COc2ccc(S(=O)(=O)NC3CCCC3)cc21 -31.8%
O=C(Nc1c2ccccc2nc2ccccc12)C(Cl)(Cl)Cl -32.7%
CCCCSc1nnc(-c2ccc(C)cc2)n1C -35.4%
COc1ccc(C2NC(=O)NC(c3ccccc3)=C2c2nc3ccccc3s2)cc1 (stereo not drawn) -44.5%
O=C(Nc1nnc(Cc2ccccc2)s1)c1cnccn1 -40.1%
COc1ccccc1NC(=O)NCCCN1CCN(c2cccc(Cl)c2)CC1 -30.8%
CCCn1c(NC(=O)C2CCN(S(=O)(=O)c3cccs3)CC2)nc2ccccc21 -39%
Cc1onc(-c2c(F)cccc2Cl)c1C(=O)Nc1sc2c(c1C#N)CCC(C(C)(C)C)C2 (stereo not drawn) -31.8%
CCc1cc(=O)oc2cc(OCC(=O)NCc3ccccn3)ccc12 -33.5%
CCC(C)[C@H]1CN=C(N)N1CCc1cc(C(F)(F)F)cc(C(F)(F)F)c1 (stereo partly drawn) -40.8%

From PubChem BioAssay AID743279 (National Center for Advancing Translational Sciences (NCATS), 2014)
